The other results are listed elsewhere or left out. These are further read-outs of the screen, such as a control signal, another cell line or another target. No call is given for them.

We go through 31 molecules from PubChem BioAssay AID1745853 (National Center for Advancing Translational Sciences (NCATS), 2022).

Common to all, as to assay: Primary Screen for Target Class Profiling of Small Molecule Inhibitors of Methyltransferases
Assay [1] addresses Glycine N-methyltransferase (Homo sapiens) (UniProt Q14749). The settings on record: purified enzyme, MTase-Glo SAH luminescence; measured here: GNMT inhibition; at 40 µM; stronger effect = lower value. The essentials: (§1)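 Each enzyme was reacted with SAM and its substrate, with compounds tested once at 40 uM; SAH formed was read by MTase-Glo luminescence.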
For assay [2], the target named is Guanidinoacetate N-methyltransferase (Homo sapiens) (UniProt Q14353). The settings on record: purified enzyme, MTase-Glo SAH luminescence; measured here: GAMT inhibition; at 40 µM; stronger effect = lower value. The essentials: as §1
Assay [3] has as its target Histamine N-methyltransferase (Homo sapiens) (UniProt P50135). The settings on record: purified enzyme, MTase-Glo SAH luminescence; measured here: HNMT inhibition; at 40 µM; stronger effect = lower value. The essentials: as §1
Assay [4] deals with Nicotinamide N-methyltransferase (Homo sapiens) (UniProt P40261). Conditions: purified enzyme, MTase-Glo SAH luminescence; measured here: NNMT inhibition; at 40 µM; stronger effect = lower value. The essentials: as §1
Assay [5] addresses Phenylethanolamine N-methyltransferase (Homo sapiens) (UniProt P11086). Conditions: purified enzyme, MTase-Glo SAH luminescence; measured here: PNMT inhibition; at 40 µM; stronger effect = lower value. The essentials:
as §1
% is scaled to controls: 0 for no effect and ±100 for the full control effect.

Turning to `CCOC(=O)C1CCC(CNC(=O)N2CCn3cccc3C2C)CC1` (configuration not stated), the activity change, negative = inhibition in assay [1] was 4.02%; in assay [2] it was 0.804%; in assay [3], 10.5%; in assay [4] it was -1.91%; in assay [5], 5.93%.
In the same order, the values of `CC(C)NC(=O)c1ccc2c(=O)n(C(C)C)c3nn(Cc4ccc(Cl)cc4)c(=O)n3c2c1` are -2.64%, 0.639%, 5.63%, -4.99% and 5.01%.
On to `CC1CCN(S(=O)(=O)c2ccc3c(ccn3CCC(=O)NCc3ccc4c(c3)OCO4)c2)CC1`, for which the activity change, negative = inhibition in assay [1] was 4.62%; in assay [2] it was 0%; in assay [3], -0.285%; in assay [4], -0.422%; in assay [5], 2.27%.
Turning to `O=C(c1ccccc1F)N1CCC2(CC(c3cccc(C(F)(F)F)c3)=NO2)C1` (configuration not stated), the activity change, negative = inhibition is -3.8% in assay [1]; -1.85% in assay [2]; -1.29% in assay [3]; -12.5% in assay [4]; -1.43% in assay [5].
In the same order, the values of `CCCC(=O)N1CCC(O)(c2ccccc2)[C@H](N2CCCC2)C1` (some centres not stated) are -15.4%, -7.37%, -8.79%, -15.4% and -10.8%.
In the same order, the values of `CCOC(=O)N1CCC(NC(=O)c2ccccc2C2CCNC2)CC1` (configuration not stated) are -4.12%, -4.47%, -5.46%, -9.11% and -8.31%.
Consider `CCCN1C(=O)c2cc3sc(CC)cc3n2CC1(C)C(=O)NC1CCCCCC1` (configuration not stated), for which the activity change, negative = inhibition in assay [1] is -5.49%; in assay [2], 6.11%; in assay [3] it was -1.85%; in assay [4] it was -4.31%; in assay [5], -3.71%.
In the same order, the values of `CCCCc1cc(C[C@H]2CNCC[C@H]2CC(=O)N2CCC(Cc3ccccc3)CC2)no1` are -6.85%, -4.79%, -9.65%, -20.5% and -6.05%.
Consider `CC(=O)[C@H]1CC[C@H]2[C@@H]3CC=C4C[C@@H](OS(=O)(=O)O)CC[C@]4(C)[C@H]3CC[C@]12C`, for which the activity change, negative = inhibition is -9.66% in assay [1]; 2.06% in assay [2]; -3.22% in assay [3]; -24.1% in assay [4]; -12.6% in assay [5].
For the molecule `COc1ccc(OC)c2c1cc1n2CC(C)(C(=O)NC2CCCC2)N(Cc2cccc(F)c2)C1=O` (configuration not stated), the activity change, negative = inhibition in assay [1] was -3.28%; in assay [2], 1.14%; in assay [3], 4.27%; in assay [4], -8.36%; in assay [5], -5.09%.
The matching figures for `O=C1NC[C@@H](CCC(=O)N2CCc3ccccc32)N2C[C@@H](NCc3ccc(CO)o3)C[C@@H]12`: -4.89%, -1.11%, -1.14%, -2.41% and -5.58%.
In the same order, the values of `CN1C(=O)c2cccn2CC1CNC(=O)c1cccc2nccnc12` (configuration not stated) are -4.52%, -3%, 0.351%, -7.85% and -2.84%.
In the same order, the values of `C=CC(=O)N1CCC(Oc2cc3c(Nc4ccc(Cl)c(Cl)c4F)ncnc3cc2OC)CC1` are -17.4%, 0.996%, -30.9%, -24.2% and -20.5%.
For the molecule `O=c1[nH]c2ccc(S(=O)(=O)Nc3ccccc3)cc2[nH]1`, the activity change, negative = inhibition in assay [1] came to 13%; in assay [2] it was 0%; in assay [3], 13.4%; in assay [4] it was 5.46%; in assay [5], 1.88%.
In the same order, the values of `CCOC(=O)c1cc2n(n1)CC(C)(C(=O)NC1CCCC1)N(c1cccc(F)c1)C2=O` (configuration not stated) are 9.25%, 4.12%, 7.92%, 3.91% and 6.69%.
As to `CC(=O)NC[C@H]1CN(c2ccc(N3CCN(C(=O)CO)CC3)c(F)c2)C(=O)O1`, the activity change, negative = inhibition in assay [1] is -9.62%; in assay [2], -14.5%; in assay [3], -6.02%; in assay [4], -21%; in assay [5], -11%.
Take `CCN(CCO)CCCOc1ccc2c(Nc3cc(CC(=O)Nc4cccc(F)c4)[nH]n3)ncnc2c1`: the activity change, negative = inhibition in assay [1] is -8.6%; in assay [2] it was 7.35%; in assay [3] it was -48.2%; in assay [4], -20.1%; in assay [5], -11.7%.
`Cc1c(C(=O)NCCCO)cnn1-c1nc(-c2cccc(C(F)(F)F)c2)cs1`: the activity change, negative = inhibition was -19.9% in assay [1]; 10.2% in assay [2]; -14.6% in assay [3]; -9.56% in assay [4]; -2.95% in assay [5].
For the molecule `CC(NC(=O)C(O)C(C)C)C(=O)NC1C(=O)N(C)CCc2ccccc21` (configuration not stated), the figures for the activity change, negative = inhibition in assay [1] and in assay [3] were -7.04% and -4.55%, respectively.
As to `CC(C)Cn1c(=O)c2ccc(C(=O)NC3CCCC3)cc2n2c(=O)n(CC(=O)NC3CCCC3)nc12`, the activity change, negative = inhibition in assay [1] worked out at 3.74%; in assay [2], 3.67%; in assay [3], 10%; in assay [4], 1.24%; in assay [5], 0.565%.
In the same order, the values of `CC(C)CC(NP(=O)(O)O[C@@H]1O[C@@H](C)[C@H](O)[C@@H](O)[C@H]1O)C(=O)NC(Cc1c[nH]c2ccccc12)C(=O)O` (some centres not stated) are -0.534%, 4.28%, -1.06%, -4.32% and 0.241%.
In the same order, the values of `CC(C)c1cc(C(=O)N[C@@H]2COCC[C@@H]2Oc2cccc(F)c2)nc(N)n1` are -2.6%, 2.02%, -0.764%, 0.317% and -6.5%.
With `COc1ccccc1CN1C(=O)c2nc3ccccc3n2CC1(C)C(=O)NC1CCCC(C)C1C` (configuration not stated), the activity change, negative = inhibition in assay [1] is 2.09%; in assay [2], 0.142%; in assay [3], 0.438%; in assay [4], 1.89%; in assay [5], -1.65%.
In the same order, the values of `C=CCn1c(=O)c2ccc(C(=O)NC(C)C)cc2n2c(=O)n(CC(=O)Nc3cc(C)ccc3C)nc12` are -1.4%, 4.02%, 1.34%, 0.649% and -1.75%.
In the same order, the values of `COc1ccc(C(=O)N2CCCN(c3nnc4ccc(Cl)cn34)CC2)cn1` are -4.1%, -0.642%, -0.418%, -10.4% and -6.35%.
In the same order, the values of `O=C(c1ccc(F)cc1)N1CCC(OCCOc2cccnc2)CC1` are -0.24%, -1.54%, -2.53%, -2% and 1.64%.
Take `CC(=O)C12OC(C)(C)OC1CC1C3CCC4=CC(=O)C=CC4(C)C3(F)C(O)CC12C` (configuration not stated): the activity change, negative = inhibition is -0.712% in assay [1]; 6.99% in assay [2]; 0.698% in assay [3]; -16.6% in assay [4]; -6.69% in assay [5].
The matching figures for `CC(C)CCNC(=O)C1c2c(n(C)c3ccccc23)SCC(=O)N1C1CCCCC1` (configuration not stated): 7.77%, 0%, 9.19%, 7.6% and 6.75%.
The matching figures for `O=C(Cn1nc2c(cc1=O)CCCCC2)Nc1nnc(C2CCCO2)s1` (configuration not stated): -3.01%, -1.4%, 1.08%, -5.53% and 2.97%.
On to `CCCCCCCCCCCCCCCC(=O)OC(CC(=O)O)C[N+](C)(C)C` (configuration not stated), for which the activity change, negative = inhibition in assay [1] is -2.98%; in assay [2], 7.61%; in assay [3], 1.96%; in assay [4] it was -8.78%; in assay [5], 8%.
In the same order, the values of `O=C(NCc1ccccc1Cl)c1ccc2c(=O)nc3c(-c4ccc(F)cc4)n[nH]n3c2c1` are -2.83%, -2.03%, -6.18%, -4.65% and -6.45%.
